The results in this text go back to patent US20100124555A1, “Compositions and Methods for Treating Pancreatic Tumors” (UNIVERSITE DE LA MEDITERRANEE, priority 2007, published 2010).

For the series, the system named is SOJ-6 cells. Put plainly: Annexin V / PI apoptosis assay. The series is classed as cell-based, human. To be noted: antibodies 20 μg/ml, tunicamycin 25 or 50 μg/ml. As for the experimental part:
SOJ-6 cells (20.10^4 cells per well) were seeded onto 24 wells plates 72H before to start the experiment. Cells were incubated either with 20 μg/ml 16D10 IgM, or 20 μg/ml of a further recombinant 16D10 IgG1 antibody which contained the 16D10 variable regions linked fused to a human IgG1 constant region and human kappa light region for the heavy and light chains respectively, 25 μg/ml Tunicamycin or 50 μg/ml Tunicamycin. The AnnexinV/PI stainings were performed after 24H of culture using the AnnexinV-FITC Apoptosis Detection Kit I (BD Pharmingen) according to the manufacturer instructions. Stainings were acquired on a FACScan (Becton Dickinson, San Jose, Calif.) and results were analysed using FlowJo Software.

B1: IgG1 antibody 16D10: further recombinant 16D10 IgG1 antibody: 16D10 variable regions fused to human IgG1 constant region and human kappa light region (antibody)
heavy: QVQLQQSDAELVKPGASVKISCKASGYTFTDHAIHWVKQKPEQGLEWIGYISPGNDVIKFNEKFKGKATLTADKSSSTAYMQLNSLTSEDSAVYFCKRSEGGVFDYWGQGTTLTVSS[omitted - human IgG1 constant region]
light: NIMMTQSPSSLAVSAGEKVTMSCKSSQSVLYSSNQKNFLAWYQQKPGQSPKLLIYWASTRESGVPDRFTGSGSGTDFTLTISSVQAEDLAVYYCHQYLSSYTFGGGTKLEIKRTVAAPSVFIFPPSDEQLKSGTASVVCLLNNFYPREAKVQWKVDNALQSGNSQESVTEQDSKDSTYSLSSTLTLSKADYEKHKVYACEVTHQGLSSPVTKSFNR
On to B1, for which the “apoptosis by Annexin V and Annexin V/PI staining” value is reported as “induced significant levels of apoptosis”. In addition, the “apoptosis by Annexin V and Annexin V/PI staining” value (listed as chimeric recombinant 16D10 antibody) is “capable of inducing apoptosis of SOJ-6 cells”.
